Source: patent publication US8546421B1, “Oncogenic-RAS-signal dependent lethal compounds” (The Trustees of Columbia University in the City of New York, priority 2007, dated 2013)

Legend:
[1] = system: BJ-TERT/p53DD/CDK4/cyclinD1/ST/RAS^V12 (DRD) cells; experiment: Alamar blue growth inhibition, DRD cell line test; assay type: cell-based, human; settings: for potency / activity in DRD cells (in words): compared with BJ-TERT/LT/ST/RAS^V12 cells, alamar blue
[2] = system: TRE, TRE/E6/E7/ST and TRE/E6/E7/ST/RAS^V12 cells; experiment: Alamar blue assay in isogenic cells with or without oncogenic RAS

Row | SMILES | potency / activity in DRD cells (in words) [1] | selectivity towards oncogenic HRAS in TRE cell system (in words) [2] | concentration at which growth was inhibited (as low as) ([1]; DRD cells, 48 hours)
1 | C=C1CCC2C(C)(C)CCC[C@]2(C)C1CC/C(C)=C\CC/C(C)=N/NC(N)=S (some centres unmarked) [Compound 36] | close to that of BJ-TERT/LT/ST cells | increase in sensitivity upon activation of oncogenic RAS signaling was seen | 
2 | CC[C@]1(O)C[C@@H]2CN(CCc3c([nH]c4ccccc34)[C@@](C(=O)OC)(c3cc4c(cc3OC)N(C)[C@H]3[C@@](O)(C(=O)OC)[C@H](OC(C)=O)[C@]5(CC)C=CCN6CC[C@]43[C@@H]65)C2)C1 [vinblastine, reference compound] | not equally active |  | 
3 | COc1cc([C@@H]2c3cc4c(cc3[C@@H](O[C@@H]3O[C@@H]5CO[C@@H](c6cccs6)O[C@H]5[C@H](O)[C@H]3O)[C@H]3COC(=O)[C@H]23)OCO4)cc(OC)c1O [teniposide, reference compound] | not equally active |  | 
4 | COCCOC(=O)C1=C(C)NC2=C(C(=O)CC(c3ccccc3)C2)C1c1ccccc1F (centres unmarked) [Compound 4] | inactive |  | 
5 | COc1cccc2c1C(=O)c1c(O)c3c(c(O)c1C2=O)C[C@@](O)(C(C)=O)C[C@@H]3O[C@H]1C[C@H](N)[C@H](O)[C@H](C)O1 [daunorubicin, reference compound] | none of these traditional chemotherapeutic agents were active |  | 
6 | COCCOC(=O)C1=C(C)NC2=C(C(=O)CC(c3ccc(Cl)cc3)C2)C1c1ccccc1F (centres unmarked) [Compound 3] |  | selectivity of Compound 3 against oncogenic RAS was manifest | 
7 | COc1cccc2c1C(=O)c1c(O)c3c(c(O)c1C2=O)C[C@@](O)(C(=O)CO)C[C@@H]3O[C@H]1C[C@H](N)[C@H](O)[C@H](C)O1 [doxorubicin, reference compound] | none of these traditional chemotherapeutic agents were active |  | 
8 | O=C1c2c(O)ccc(O)c2C(=O)c2c(NCCNCCO)ccc(NCCNCCO)c21 [mitoxantrone, reference compound] | none of these traditional chemotherapeutic agents were active |  | 
9 | COC(=O)c1ccc(C2c3[nH]c4ccccc4c3CC(C(=O)OC)N2C(=O)CCl)cc1 (centres unmarked) [Compound 27] |  | slightly more sensitive | ≥ 10 ng/mL
